For 56 sequences, thermal melting temperature results are on record in the supplement of paper PMC7726561.

The full ranking holds about 1,400 sequences; the median of “thermal melting temperature (Tm) of peptide-HLA complex” is about 60, and the lowest 2% start at about 45. The list shows a part of the results.
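Also: cell lysates heated 10 min at 37–73 °C, remaining pHLA pulled down with pan-class I antibody, peptides quantified by DIA-MS versus 37 °C, Tm where half the complex is lost.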

The test has as its target HLA-B*07:02. Nature of the test: thermal melting temperature (Tm) of peptide-HLA complex; higher = more thermostable pHLA complex. To be noted: C1R-B*07:02.
In turn, SPQKVTLYL returned a thermal melting temperature of 62.1 °C.
Consider LPKTGTVSL, for which the thermal melting temperature was determined as 58.3 °C.
In the case of RPVTPITNF it was 59.4 °C; in that of FPQHTIASL, 58.7 °C; in that of RPAANPIQFTL, 59.8 °C.
The figure for IPAKPPVSFF is 62 °C; for PAEPKLAF it is 55.5 °C; for LPHAVSSLL it is 62.4 °C.
In the case of LPRGEKPNPL it was 51.3 °C; in that of GPDEAKIKALL, 60 °C; in that of APIQGNREEL, 56.3 °C.
Sequence NPRDPPSWSVL came in with a thermal melting temperature of 58.6 °C.
In the case of LPSVPSTHL it was 57.8 °C; in that of APRTVLLL, 48.3 °C; in that of GPRPGSPSAL, 56.7 °C.
In the case of VPEVTKPSL it was 57.6 °C; in that of VPMEIKPGISL, 61.6 °C; in that of SPRAGQLLEVL, 60 °C.
The figure for VPRNYDPAL is 57.3 °C; for RPSSTITYL it is 55.4 °C.
Turning to SPRGFPLGL, the thermal melting temperature was determined as 63.2 °C.
Sequence NPKNPGLWL showed a thermal melting temperature of 61 °C.
The figure for SPGLLPHL is 61 °C; for PNIPGKSL it is 61.1 °C.
The figure for TPLSSTVTL is 62.2 °C.
Sequence SPQSPGDAL gave a thermal melting temperature of 58.9 °C.
The figure for RPLEMIEPRTL is 53.5 °C; for MPQKERESI it is 60.6 °C.
In the case of YPRQQLLTL it was 62.6 °C; in that of FPHATSQTLL, 60.5 °C.
In the case of SPYLRPLTL it was 63.5 °C.
RPWDPAVGVL registered a thermal melting temperature of 59.5 °C.
The figure for APPVLKRPIL is 51.5 °C.
RPSAAGINL: the thermal melting temperature is 57.1 °C.
In the case of LPYSIRVLL it was 60.4 °C; in that of SPELIRVQL, 58.5 °C; in that of HPMPRVNEI, 55.6 °C.
In the case of TPRSPQPEL it was 54.9 °C; in that of LLRLPSSVL, 59.8 °C; in that of HPRYLIPEL, 57.4 °C.
The figure for APHPVYYPAL is 61.6 °C; for NVRIATTAL it is 60 °C.
For VPRLPGETLI, the thermal melting temperature came to 63.1 °C.
In the case of SPYPRVKVDF it was 61.6 °C; in that of APYERRAMEL, 54.2 °C.
In the case of TPRATLITF it was 62.2 °C.
The figure for NPRATFSEF is 59.6 °C; for GPHISYPPL it is 62.2 °C; for TPDPQRVPL it is 48.2 °C.
Sequence SPTDPFNRQTL gave a thermal melting temperature of 58.2 °C.
In the case of SPAPPLLHV it was 60.8 °C; in that of GPRSPSVIFM, 62.2 °C; in that of TPFPFRTGL, 61.3 °C.
The figure for SPRTLNLSQL is 59.5 °C; for NPRSVTLLI it is 60.8 °C.
The figure for KPMEGWIAV is 60.7 °C.
